Experimental data published in the supplement of paper PMC10126150.
Values marked as one replicate rest on one cluster of the flow cell; about a third of the high ones do not repeat.

Tested on: ATP
Assay: switch fluorescence ratio, 500 uM ATP over buffer (Cy3 cluster intensity, sum of 5 cycles each) (fold (ratio)); higher = stronger signal-on switching upon ATP binding; sequences stand for … in TCGTCGGCAGCGTCAGATGTGTATAAGAGACAGTTTTTTTTTTTTTTTTTTTTTTTTT…TC
Conditions: aptamer strand: ATP DNA aptamer (quencher-CACCTGGGGGAGTATTGCGGAGGAAGG + anchor), 100 nM annealed; ATP concentration: 500 uM; one replicate
How it was run: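 After annealing to 100 nM quencher-labelled ATP aptamer, Cy3-labelled switching-strand clusters on a modified Illumina MiSeq flow-cell were imaged in selection buffer. A second image followed after 15 min with 500 uM ATP at 22 °C, and five such buffer/ATP cycles were done, each separated by NaOH stripping and re-annealing. The fluorescence ratio, averaged per switch-domain sequence, is summed target-cycle over summed buffer-cycle Cy3 intensity per cluster, with clusters outside 100-1000 RFU excluded.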
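Further: ATP exposure 15 min at 22 °C before imaging.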

Row | Sequence | switch fluorescence ratio
1 | GGGGAATATC | 1.12
2 | TGCCTCCACT | 1.14
3 | GTCGGAACGC | 1.07
4 | AGAGCAGAGG | 1
5 | TTCTACAGT | 1.02
6 | TGTTCGCCG | 1
7 | CATGTTGAGG | 0.974
8 | ACCACTGG | 1.03
9 | CAAGCTACAA | 1.15
10 | CATGGCATGG | 0.986
11 | ATTCGCGGTA | 1.02
12 | CGTCTCGATG | 1.02
13 | AGGCATTGTT | 0.985
14 | GTTGAATAG | 1.02
15 | GTCATTTAGT | 0.981
16 | ATAATATTCT | 1.03
17 | TTGGGCGGCT | 1.07
18 | AACGGGATTT | 0.971
19 | GATCCATGAC | 1.04
20 | ATGGAGACCA | 1.04
21 | TCCGGTGGAT | 1.03
22 | AGTTAGGGT | 1.02
23 | GCCACTGTTG | 0.988
24 | AGCACGCGGG | 0.974
25 | GCGTCGTACG | 0.982
26 | CTGGTGAGA | 1.03

Row | Sequence | switch fluorescence ratio
27 | AGTAACGTT | 0.972
28 | AGATTGGAGT | 1.03
29 | ATATTGGGC | 0.989
30 | TATTGCTCCG | 1.31
31 | ACTCATGACC | 1.03
32 | ACATGGCCA | 1.03
33 | CGCATTAGTA | 1.09
34 | CCAGATGGC | 1.06
35 | TGATTGCTCG | 0.981
36 | ATATCCTACG | 1.23
37 | AAAATCTTTG | 0.972
38 | CCAGGGCTTC | 1.05
39 | TTTTTGCGAC | 2.11
40 | AGGTATAAGT | 0.975
41 | GAGCAGAGTA | 1.01
42 | GTAGTCAACA | 0.996
43 | GTTTGGTGAC | 0.993
44 | AACCCCGAAG | 1.64
45 | CCCGCCCTAA | 1.25
46 | TCCGGATTGC | 2
47 | GATCAGTGGA | 1.01
48 | GGTTGACTTT | 0.955
49 | GTGTGACC | 0.953
50 | GCTAGCGCAT | 1.08
51 | CAAGTTGCCT | 1.04
52 | TTAGGTAGAG | 1.03

Row | Sequence | switch fluorescence ratio
53 | TATCCCCTTT | 1.08
54 | TACGACTGTG | 1.03
55 | TTGATTACCT | 1.08
56 | ATGCGTGCCC | 1.02
57 | GGTTGGGC | 1.02
58 | CCGGTTTGGT | 0.988
59 | TACTTACCCC | 1.28
60 | AAATACTCA | 1.28
61 | TCTTCCGATT | 1.21
62 | CTGACGGAGG | 1.04
63 | ATACATTTTG | 1
64 | TTTGTCAATG | 1.04
65 | CTCATGCCGA | 1.08
66 | TACTAACCAA | 1.08
67 | GCGGTAAGTA | 0.998
68 | AGCATATTCG | 1.05
69 | TATTCACTAT | 1.07
70 | AATTTATGTA | 1.04
71 | CAGCGTAAAT | 1.03
72 | CTTTGGGTAT | 1.03
73 | GTCAGGGAAG | 0.997
74 | TACTGATGAG | 1.03
75 | ATTTCGGGGG | 0.987
76 | TGGCGATTCT | 0.985
77 | ATTGTTTACC | 0.968
78 | TAAGCCTTGC | 1.15

Row | Sequence | switch fluorescence ratio
79 | ACTACTGGGG | 1.09
80 | TTGCAAGATT | 1.09
81 | ATATATTGGG | 1.01
82 | GAGTATGAAC | 0.975
83 | GGTCTATATT | 0.945
84 | TTGCCGCAAA | 1.82
85 | AGAATCTTAC | 1.34
86 | TGCAGTAAAT | 1.03
87 | GCCGATTGTG | 1.03
88 | TTAATTGCGT | 1.01
89 | CTCTGAGACA | 0.965
90 | TCGAACCAAC | 1.2
91 | CAGCGTGTTG | 1.05
92 | AATCGCACTG | 1.08
93 | TGTTTCAATC | 1.04
94 | GAGGTTGGG | 1.01
95 | TATTTGCGGT | 0.982
96 | TACATTACCC | 1.32
97 | TCTGTCCGCG | 1.12
98 | CAGACCTGGC | 0.894
99 | GATCTAGCCG | 0.992
100 | CGGGATTGGA | 0.991
101 | TGCCTTTATA | 1.07
102 | GTATGTGTTT | 0.985
103 | GGATTGGCA | 0.986
104 | AGCTTATCTG | 0.97

Row | Sequence | switch fluorescence ratio
105 | TGTGTGGGAT | 0.994
106 | TCGCAGGTT | 1.36
107 | TATCCAAG | 1.02
108 | ACTGCCGGGG | 1.09
109 | GACGCCAGTT | 1.02
110 | TAAAGAAGAA | 0.951
111 | AACACTTTTT | 1.02
112 | GGAACTGGTT | 0.899
113 | TAGTTGGGCC | 0.991
114 | CCACAGATAA | 1.09
115 | TAACTCGGTC | 1.05
116 | ACATAGACTT | 1.05
117 | AGGGTCGGTC | 1.01
118 | GACACGGGAT | 0.952
119 | ATACGAAGCC | 1.16
120 | AGTTGGTCCG | 1.02
121 | GCACCCGCTC | 1.17
122 | TCAGGTCGAC | 1.01
123 | ATAACAGCGT | 0.998
124 | ATACAAGAGT | 1
125 | TTCTTCATCG | 1.01
126 | TATGAGTTGG | 0.922
127 | GCAATTTTGA | 1.06
128 | TGTTGAGATG | 1
129 | TTTGGGTAT | 1.01
130 | GGAGCAAGTT | 1.91

Row | Sequence | switch fluorescence ratio
131 | GTCGCTCATG | 1.03
132 | TTTTCGTTCT | 0.956
133 | CCTCGACGGT | 1.2
134 | CACAACTT | 1.05
135 | ATGCCCGGTC | 1.02
136 | TGTCCGTCA | 1.01
137 | CACGTAAGTT | 1.13
138 | TTTAAGTTCC | 1.05
139 | AGTTATCTTC | 0.994
140 | TCACTTTAT | 1.05
141 | ACCGTTAAAC | 1.28
142 | TGCTGGAT | 1.03
143 | TGTTTTCGGG | 0.996
144 | TTAGTTGTGT | 0.972
145 | ATATTTCAG | 0.999
146 | CTGTCACCTG | 1
147 | CCCGTCACTA | 1.13
148 | TGTCGGCAAG | 0.979
149 | CCTCTCCCCG | 1.23
150 | CGTTCCAACC | 1.07
151 | AGCCTTTTGT | 0.988
152 | TGCTCCCGGG | 1.13
153 | AGTATATCGA | 1
154 | AGGGTTCTCA | 1.02
